According to the supplement of paper PMC8728848:
The list shows a part of the results.

Assays:
Assay in all cases: glycan array binding signal (z-score within array); higher = stronger binding
Conditions in all cases: glycan notation: IUPAC condensed, linker removed
[1] = target: Gal(b1-3)GlcNAc(b1-3)GalNAc
How it was run: (§1)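 Glycan array binding is given as a within-array Z-score, which can be read as non-binding when negative. The arrays, 3228 of them, came from the Consortium for Functional Glycomics database and were retained only where the protein sequence was available. Z-scores were averaged across arrays of the same protein sequence at different concentrations or buffers and across linkers.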

[2] = target: Gal(b1-3)GlcNAc(b1-6)Gal(b1-4)GlcNAc
How it was run: as §1

[3] = target: Gal(b1-3)[Fuc(a1-4)]GlcNAc
How it was run: as §1

[4] = target: Gal(b1-3)[Fuc(a1-4)]GlcNAc(b1-2)Man(a1-3)[Gal(b1-3)[Fuc(a1-4)]GlcNAc(b1-2)Man(a1-6)]Man(b1-4)GlcNAc(b1-4)GlcNAc
How it was run: as §1

[5] = target: Gal(b1-3)[Fuc(a1-4)]GlcNAc(b1-2)Man(a1-3)[Gal(b1-3)[Fuc(a1-4)]GlcNAc(b1-2)Man(a1-6)]Man(b1-4)GlcNAc(b1-4)[Fuc(a1-6)]GlcNAc
How it was run: as §1

[6] = target: Gal(b1-3)[Fuc(a1-4)]GlcNAc(b1-3)Gal(b1-3)[Fuc(a1-4)]GlcNAc
How it was run: as §1

[7] = target: Gal(b1-3)[Fuc(a1-4)]GlcNAc(b1-3)Gal(b1-4)GlcNAc
How it was run: as §1

[8] = target: Gal(b1-3)[Fuc(a1-4)]GlcNAc(b1-3)Gal(b1-4)[Fuc(a1-3)]GlcNAc
How it was run: as §1

[9] = target: Gal(b1-3)[GlcNAc(b1-6)]GalNAc
How it was run: as §1

[10] = target: Gal(b1-3)[Neu5Ac(a2-6)]GalNAc
How it was run: as §1

[11] = target: Gal(b1-3)[Neu5Ac(a2-6)]GlcNAc(b1-6)Gal(b1-4)Glc
How it was run: as §1

[12] = target: Gal(b1-3)[Neu5Ac(b2-6)]GalNAc
How it was run: as §1

[13] = target: Gal(b1-4)GalNAc(a1-3)[Fuc(a1-2)]Gal(b1-4)GlcNAc
How it was run: as §1

[14] = target: Gal(b1-4)GalNAc(b1-3)[Fuc(a1-2)]Gal(b1-4)GlcNAc
How it was run: as §1

Gal(b1-4)Glc = target: Gal(b1-4)Glc
How it was run: as §1

Gal(b1-4)Glc6S = target: Gal(b1-4)Glc6S
How it was run: as §1

Gal(b1-4)GlcNAc = target: Gal(b1-4)GlcNAc
How it was run: as §1

[15] = target: Gal(b1-4)GlcNAc(a1-6)Gal(b1-4)GlcNAc
How it was run: as §1

[16] = target: Gal(b1-4)GlcNAc(b1-2)Man(a1-3)Man(b1-4)GlcNAc(b1-4)GlcNAc
How it was run: as §1

[17] = target: Gal(b1-4)GlcNAc(b1-2)Man(a1-3)[Gal(b1-4)GlcNAc(b1-2)Man(a1-6)]Man(b1-4)GlcNAc(b1-4)GlcNAc
How it was run: as §1

[18] = target: Gal(b1-4)GlcNAc(b1-2)Man(a1-3)[Gal(b1-4)GlcNAc(b1-2)Man(a1-6)]Man(b1-4)GlcNAc(b1-4)[Fuc(a1-6)]GlcNAc
How it was run: as §1

[19] = target: Gal(b1-4)GlcNAc(b1-2)Man(a1-3)[GlcNAc(b1-2)Man(a1-6)]Man(b1-4)GlcNAc(b1-4)GlcNAc
How it was run: as §1

[20] = target: Gal(b1-4)GlcNAc(b1-2)Man(a1-3)[Man(a1-6)]Man(b1-4)GlcNAc(b1-4)GlcNAc
How it was run: as §1

[21] = target: Gal(b1-4)GlcNAc(b1-2)Man(a1-6)Man(b1-4)GlcNAc(b1-4)GlcNAc
How it was run: as §1

[22] = target: Gal(b1-4)GlcNAc(b1-2)Man(a1-6)[GlcNAc(b1-2)Man(a1-3)]Man(b1-4)GlcNAc(b1-4)GlcNAc
How it was run: as §1

[23] = target: Gal(b1-4)GlcNAc(b1-2)Man(a1-6)[Man(a1-3)]Man(b1-4)GlcNAc(b1-4)GlcNAc
How it was run: as §1

[24] = target: Gal(b1-4)GlcNAc(b1-2)[Gal(b1-4)GlcNAc(b1-4)]Man(a1-3)[Gal(b1-4)GlcNAc(b1-2)Man(a1-6)]Man(b1-4)GlcNAc(b1-4)GlcNAc
How it was run: as §1

[25] = target: Gal(b1-4)GlcNAc(b1-2)[Gal(b1-4)GlcNAc(b1-4)]Man(a1-3)[Gal(b1-4)GlcNAc(b1-2)[Gal(b1-4)GlcNAc(b1-6)]Man(a1-6)]Man(b1-4)GlcNAc(b1-4)GlcNAc
How it was run: as §1

[26] = target: Gal(b1-4)GlcNAc(b1-3)Gal(b1-3)GlcNAc
How it was run: as §1

[27] = target: Gal(b1-4)GlcNAc(b1-3)Gal(b1-4)Glc
How it was run: as §1

[28] = target: Gal(b1-4)GlcNAc(b1-3)Gal(b1-4)GlcNAc
How it was run: as §1

[29] = target: Gal(b1-4)GlcNAc(b1-3)Gal(b1-4)GlcNAc(b1-3)Gal(b1-4)GlcNAc
How it was run: as §1

[30] = target: Gal(b1-4)GlcNAc(b1-3)Gal(b1-4)[Fuc(a1-3)]GlcNAc(b1-3)Gal(b1-4)[Fuc(a1-3)]GlcNAc
How it was run: as §1

[31] = target: Gal(b1-4)GlcNAc(b1-3)GalNAc
How it was run: as §1

[32] = target: Gal(b1-4)GlcNAc(b1-3)[Gal(b1-4)GlcNAc(b1-6)]Gal(b1-4)GlcNAc
How it was run: as §1

[33] = target: Gal(b1-4)GlcNAc(b1-3)[Gal(b1-4)GlcNAc(b1-6)]GalNAc
How it was run: as §1

[34] = target: Gal(b1-4)GlcNAc(b1-3)[GlcNAc(b1-6)]Gal(b1-4)GlcNAc
How it was run: as §1

[35] = target: Gal(b1-4)GlcNAc(b1-6)Gal(b1-4)GlcNAc
How it was run: as §1

[36] = target: Gal(b1-4)GlcNAc(b1-6)Gal(b1-4)GlcNAc(b1-6)GalNAc
How it was run: as §1

[37] = target: Gal(b1-4)GlcNAc(b1-6)GalNAc
How it was run: as §1

[38] = target: Gal(b1-4)GlcNAc(b1-6)[Gal(b1-3)]GalNAc
How it was run: as §1

Gal3S(b1-3)GalNAc = target: Gal3S(b1-3)GalNAc
How it was run: as §1

Gal3S(b1-3)GlcNAc = target: Gal3S(b1-3)GlcNAc
How it was run: as §1

[39] = target: Gal3S(b1-3)[Fuc(a1-4)]GlcNAc
How it was run: as §1

Gal3S(b1-4)Glc = target: Gal3S(b1-4)Glc
How it was run: as §1

B1: Mincle (Homo sapiens), Q9ULY5 (protein)
chain: MNSSKSSETQCTERGCFSSQMFLWTVAGIPILFLSACFITRCVVTFRIFQTCDEKKFQLPENFTELSCYNYGSGSVKNCCPLNWEYFQSSCYFFSTDTISWALSLKNCSAMGAHLVVINSQEEQEFLSYKKPKMREFFIGLSDQVVEGQWQWVDGTPLTKSLSFWDVGEPNNIATLEDCATMRDSSNPRQNWNDVTCFLNYFRICEMVGINPLNKGKSL
[1]
  glycan array binding signal (z-score): -0.038
[2]
  glycan array binding signal (z-score): -0.074
[3]
  glycan array binding signal (z-score): -0.206
[4]
  glycan array binding signal (z-score): 1.13
[5]
  glycan array binding signal (z-score): -0.066
[6]
  glycan array binding signal (z-score): -0.027
[7]
  glycan array binding signal (z-score): -0.414
[8]
  glycan array binding signal (z-score): -0.084
[9]
  glycan array binding signal (z-score): -0.192
[10]
  glycan array binding signal (z-score): -0.143
[11]
  glycan array binding signal (z-score): -0.44
[12]
  glycan array binding signal (z-score): -0.188
[13]
  glycan array binding signal (z-score): -0.174
[14]
  glycan array binding signal (z-score): -0.342
Gal(b1-4)Glc
  glycan array binding signal (z-score): -0.408
Gal(b1-4)Glc6S
  glycan array binding signal (z-score): 0.126
Gal(b1-4)GlcNAc
  glycan array binding signal (z-score): -0.374
[15]
  glycan array binding signal (z-score): -0.484
[16]
  glycan array binding signal (z-score): -0.49
[17]
  glycan array binding signal (z-score): 2.23
[18]
  glycan array binding signal (z-score): -0.008
[19]
  glycan array binding signal (z-score): 0.969
[20]
  glycan array binding signal (z-score): -0.32
[21]
  glycan array binding signal (z-score): -0.433
[22]
  glycan array binding signal (z-score): 0.312
[23]
  glycan array binding signal (z-score): 0.476
[24]
  glycan array binding signal (z-score): -0.124
[25]
  glycan array binding signal (z-score): -0.45
[26]
  glycan array binding signal (z-score): -0.047
[27]
  glycan array binding signal (z-score): 0.002
[28]
  glycan array binding signal (z-score): -0.27
[29]
  glycan array binding signal (z-score): 0.047
[30]
  glycan array binding signal (z-score): -0.332
[31]
  glycan array binding signal (z-score): -0.405
[32]
  glycan array binding signal (z-score): 0.237
[33]
  glycan array binding signal (z-score): 0.009
[34]
  glycan array binding signal (z-score): -0.066
[35]
  glycan array binding signal (z-score): -0.126
[36]
  glycan array binding signal (z-score): -0.343
[37]
  glycan array binding signal (z-score): -0.306
[38]
  glycan array binding signal (z-score): -0.305
Gal3S(b1-3)GalNAc
  glycan array binding signal (z-score): -0.374
Gal3S(b1-3)GlcNAc
  glycan array binding signal (z-score): 0.417
[39]
  glycan array binding signal (z-score): 2.46
Gal3S(b1-4)Glc
  glycan array binding signal (z-score): -0.316
